T1: VEGF (UniProt P15692-4 27-191, limits assumed)
T1 sequence (looked up): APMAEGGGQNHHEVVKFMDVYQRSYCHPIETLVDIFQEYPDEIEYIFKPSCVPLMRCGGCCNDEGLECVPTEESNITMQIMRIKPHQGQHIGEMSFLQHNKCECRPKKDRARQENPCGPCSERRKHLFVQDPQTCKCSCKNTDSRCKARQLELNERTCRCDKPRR

B1: TAF-7 (other)
heavy: EVQLVESGGGLVQPGGSLRLSCAASGYTFTNYGMNWVRQAPGKGLEWVGWINTYTGEPTYAADFKRRFTFSLDTSKSTAYLQMNSLRAEDTAVYYCAKYPHYYGSSHWYFDVWGQGTLVTVSSASTKGPSVFPLAPSSKSTSGGTAALGCLVKDYFPEPVTVSWNSGALTSGVHTFPAVLQSSGLYSLSSVVTVPSSSLGTQTYICNVNHKPSNTKVDKKV[human IgG1 Fc omitted here]GGGGSGGGGSGGGGSGGGGSGIPPHVQKSVNNDMIVTDNNGAVKFPQLCKFCDVRFSTCDNQKSCMSNCSITSICEKPQEVCVAVWRKNDENITLETVCHDPKLPYHDFILEDAASPKCIMKEKKKPGETFFMCSCSSDECNDNIIFSEEYNTSNPD
light: QVQLVESGGGLVQPGGSLRLSCAASGGTFITYAMGWFRQAPGKGLEFVAGISWSGSSTYYADSVKGRFTISRDNSKNTLYLQMNSLRAEDTAVYYCAAKISGATREHLRTSYDYWGQGTLVTVSSDIQMTQSPSSLSASVGDRVTITCSASQDISNYLNWYQQKPGKAPKVLIYFTSSLHSGVPSRFSGSGSGTDFTLTISSLQPEDFATYYCQQYSTVPWTFGQGTKVEIKRTVAAPSVFIFPPSDEQLKSGTASVVCLLNNFYPREAKVQWKVDNALQSGNSQESVTEQDSKDSTYSLSSTLTLSKADYEKHKVYACEVTHQGLSSPVTKSFNRGEC
B2: TAF-8 (other)
heavy: B1 heavy
light: QVQLVESGGGLVQPGGSLRLSCAASGRTFSTHSMGWFRQAPGKGLEFVAAINWNGDSTYYADSVKGRFTISRDNSKNTLYLQMNSLRAEDTAVYYCAARPGAPSTIVAMLDYWGQGTLVTVSSDIQMTQSPSSLSASVGDRVTITCSASQDISNYLNWYQQKPGKAPKVLIYFTSSLHSGVPSRFSGSGSGTDFTLTISSLQPEDFATYYCQQYSTVPWTFGQGTKVEIKRTVAAPSVFIFPPSDEQLKSGTASVVCLLNNFYPREAKVQWKVDNALQSGNSQESVTEQDSKDSTYSLSSTLTLSKADYEKHKVYACEVTHQGLSSPVTKSFNRGEC
B3: TAF-6 (other)
heavy: QVQLVESGGGLVQPGGSLRLSCAASGGTFITYAMGWFRQAPGKGLEFVAGISWSGSSTYYADSVKGRFTISRDNSKNTLYLQMNSLRAEDTAVYYCAAKISGATREHLRTSYDYWGQGTLVTVSSEVQLVESGGGLVQPGGSLRLSCAASGYTFTNYGMNWVRQAPGKGLEWVGWINTYTGEPTYAADFKRRFTFSLDTSKSTAYLQMNSLRAEDTAVYYCAKYPHYYGSSHWYFDVWGQGTLVTVSSASTKGPSVFPLAPSSKSTSGGTAALGCLVKDYFPEPVTVSWNSGALTSGVHTFPAVLQSSGLYSLSSVVTVPSSSLGTQTYICNVNHKPSNTKVDKKV[human IgG1 Fc omitted here]GGGGSGGGGSGGGGSGGGGSGIPPHVQKSVNNDMIVTDNNGAVKFPQLCKFCDVRFSTCDNQKSCMSNCSITSICEKPQEVCVAVWRKNDENITLETVCHDPKLPYHDFILEDAASPKCIMKEKKKPGETFFMCSCSSDECNDNIIFSEEYNTSNPD
light: DIQMTQSPSSLSASVGDRVTITCSASQDISNYLNWYQQKPGKAPKVLIYFTSSLHSGVPSRFSGSGSGTDFTLTISSLQPEDFATYYCQQYSTVPWTFGQGTKVEIKRTVAAPSVFIFPPSDEQLKSGTASVVCLLNNFYPREAKVQWKVDNALQSGNSQESVTEQDSKDSTYSLSSTLTLSKADYEKHKVYACEVTHQGLSSPVTKSFNRGEC
B4: TAF-6a (other)
heavy: QVQLVESGGGLVQPGGSLRLSCAASGGTFITYAMGWFRQAPGKGLEFVAGISWSGSSTYYADSVKGRFTISRDNSKNTLYLQMNSLRAEDTAVYYCAAKISGATREHLRTSYDYWGQGTLVTVSSEVQLVESGGGLVQPGGSLRLSCAASGYTFTNYGMNWVRQAPGKGLEWVGWINTYTGEPTYAADFKRRFTFSLDTSKSTAYLQMNSLRAEDTAVYYCAKYPHYYGSSHWYFDVWGQGTLVTVSSASTKGPSVFPLAPSSKSTSGGTAALGCLVKDYFPEPVTVSWNSGALTSGVHTFPAVLQSSGLYSLSSVVTVPSSSLGTQTYICNVNHKPSNTKVDKKV[human IgG1 Fc with changes omitted here]GGGGSGGGGSGGGGSGGGGSGIPPHVQKSVNNDMIVTDNNGAVKFPQLCKFCDVRFSTCDNQKSCMSNCSITSICEKPQEVCVAVWRKNDENITLETVCHDPKLPYHDFILEDAASPKCIMKEKKKPGETFFMCSCSSDECNDNIIFSEEYNTSNPD
light: B3 light
B5: TAF-6b (other)
heavy: QVQLVESGGGLVQPGGSLRLSCAASGGTFITYAMGWFRQAPGKGLEFVAGISWSGSSTYYADSVKGRFTISRDNSKNTLYLQMNSLRAEDTAVYYCAAKISGATREHLRTSYDYWGQGTLVTVSSEVQLVESGGGLVQPGGSLRLSCAASGYTFTNYGMNWVRQAPGKGLEWVGWINTYTGEPTYAADFKRRFTFSLDTSKSTAYLQMNSLRAEDTAVYYCAKYPHYYGSSHWYFDVWGQGTLVTVSSASTKGPSVFPLAPSSKSTSGGTAALGCLVKDYFPEPVTVSWNSGALTSGVHTFPAVLQSSGLYSLSSVVTVPSSSLGTQTYICNVNHKPSNTKVDKKV[human IgG1 Fc omitted here]GGGGSGGGGSGGGGSGGGGSTIPPHVQKSVNNDMIVTDNNGAVKFPQLCKFCDVRFSTCDNQKSCMSNCSITSICEKPQEVCVAVWRKNDENITLETVCHDPKLPYHDFILEDAASPKCIMKEKKKPGETFFMCSCSSDECNDNIIFSEEYNTSNPD
light: B3 light

Sequence of TGFβ1 (P01137 279-390 limits assumed): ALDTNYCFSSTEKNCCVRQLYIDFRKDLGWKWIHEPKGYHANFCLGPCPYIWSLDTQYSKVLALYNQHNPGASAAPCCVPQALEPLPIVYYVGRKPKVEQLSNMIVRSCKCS

In one assay the target is T1, VEGF. In words: cell-based or functional assay.
Turning to B1, the “Anti-VEGF activity (IC50, nM); luciferase reporter, HEK293-NFAT-KDR cells stimulated with VEGF” value (shortened to “Anti-VEGF activity (IC50, nM)”) is 0.465 nM.
Consider B2, for which the “Anti-VEGF activity (IC50, nM)” value was found to be 0.511 nM.
As to B3, the “Anti-VEGF activity (IC50, nM)” value was 0.509 nM.
The same measure, in the same setting: in the case of B4 it was 0.444 nM; in that of B5, 0.54 nM.

The next assay concerns the target TGFβ1 (UniProt P01137 partial chain). In words: cell-based or functional assay.
Regarding B1, the “Anti-TGFβ activity (IC50, nM); luciferase reporter, TGFβ-4T1 cells stimulated with TGFβ1” value (“Anti-TGFβ activity (IC50, nM)” for short) was determined as 0.227 nM.
B2: the “Anti-TGFβ activity (IC50, nM)” value turned out to be 0.199 nM.
Regarding B3, the “Anti-TGFβ activity (IC50, nM)” value was determined as 0.201 nM.
As to B4, the “Anti-TGFβ activity (IC50, nM)” value stood at 0.234 nM.
Same read-out and setting: next, B5: 0.213 nM.

These data come from patent publication US20240124587A1 (ZHEJIANG DOER BIOLOGICS, published 2024).
